Results from the RNAGym collection of RNA variant scans (doi:10.7554/elife.90254).
Read counts are not given, so values of variants with three or more changes are uncertain.

B1: LINE1-mini (parent)
chain: GGCAGAGCUCAACACAGCGUGGCAAAGUGGCUGUGGCUAGACUGCC

Variants of: B1
Experiment: self-cleavage, relative activity (ratio to wild type); higher = more cleavage; in vitro, sequencing; the parent is a self-cleaving ribozyme

Row | Variant | self-cleavage
1 | G2C C3A G17C C18A G22A | 0.04
2 | G2U A6G U9C | 0.01
3 | G2C A16U G17A C37U | 0.07
4 | G2U A11G A14C G36U | 0
5 | G2C C3A U9G A16U C31A | 0
6 | G2C A12C C18A G27U U34G | 0.01
7 | G2C G17A U38A | 0.11
8 | G2U A14U G30A | 0.07
9 | G2C G35A U38C A39G G40U | 0.05
10 | G2U A25G C31U | 0.01
11 | G2C U32C G36U C37G U38C A41U | 0.02
12 | G2C U9G C23A | 0.03
13 | G2C C13G A25G U34C A41C C45A | 0.05
14 | G2U A14U U20A G30U C42A | 0.04
15 | G2C C3U A25C U38A G40U | 0.1
16 | G2U C3U A14U U38C | 0.05
17 | G2U A12G G17A U20G C23A | 0.01
18 | G2C A11G G29A G33A A39U | 0.02
19 | G2U A6U A14U G17U C23U | 0
20 | G2U A14U G30U U32A | 0
21 | G2C C8U G21A A24G C46G | 0.16
22 | G2U A11U A39U | 0.02
23 | G2C A11U C23U C46U | 0.01
24 | G2C C15U C18A G33C C37G | 0.06

Row | Variant | self-cleavage
25 | G2C C13A A14C G33U | 0.07
26 | G2U C3A G17U C37U | 0.08
27 | G2U C3A G5A C18U U20C | 0.46
28 | G2C U9A U38A A39C C45A | 0.29
29 | G2U C3G A24U U34C G44C | 0.06
30 | G2C C13A C15A A25C G27A | 0.05
31 | G2U A6U G7C G36A C37A | 0.12
32 | G2U A4U C10G G30A C31G U38C | 0.01
33 | G2C C10A C37A A39U | 0.01
34 | G2C A6C G7A | 0.19
35 | G2U A6C U28A G29C U38A | 0
36 | G2C G7U G35A | 0.24
37 | G2C A11U G22C G36A | 0.02
38 | G2U C3U C13G A14C G19U U20C | 0.08
39 | G2U A11G A24C G27U G36C | 0.01
40 | G2C C3G G22C U28A G30C U38A U43A C46A | 0.01
41 | G2C A14U U34C C46A | 0.07
42 | G2C A12G G17A G30C | 0.05
43 | G2C A6U U20A A24G | 0.4
44 | G2C C13A G22A A39C | 0.02
45 | G2C C10U A11U | 0.03
46 | G2C U9A A14U G17U C31A A39U A41U C45A | 0.09
47 | G2U A25U G27U C31G G44C C46A | 0.05
48 | G2C U9G G22C | 0.03

Row | Variant | self-cleavage
49 | G2C C3A C13G A24G G30U C46U | 0.01
50 | G2U C3U A11C G22U U38G C46A | 0
51 | G2U A6G C15G C42A | 0.01
52 | G2C A11C U38G | 0
53 | G2U A25U C46G | 0.06
54 | G2C C13U U20G A26U G27C | 0.27
55 | G2U C3A U38A C46A | 0.09
56 | G2C C10G C15G | 0.03
57 | G2C G5U G36C | 0.02
58 | G2U A11U G40C | 0.01
59 | G2C A14U C15U G19C C31U G40A | 0.13
60 | G2C U9A G35C G36U | 0.01
61 | G2U A6C C18A C37A | 0
62 | G2C G5A C8U G27U A41C C42U | 0.09
63 | G2U A16U G44A C46A | 0.01
64 | G2C A6C C18A U28C | 0.02
65 | G2U A14C G17U | 0.02
66 | G2U A4U A6U C10U C45U | 0.13
67 | G2U C3A C8G A26U | 0.72
68 | G2C G5A A11C U20A A39C | 0
69 | G2C G7U U43A C46U | 0.53
70 | G2U A4U G36U | 0.09
71 | G2C C15A C23U G27C C42U G44C | 0.11
72 | G2U A4G C31U G44A | 0.09

Row | Variant | self-cleavage
73 | G2C C13U A16G | 0.14
74 | G2U C3A A6G C10A U20C A41C | 0.03
75 | G2C U9C A16C G19U | 0.03
76 | G2U C3G C15A A16C G17U G27A G29C C42A | 0.12
77 | G2C G22U C46A | 0.06
78 | G2C A11C U28G | 0.02
79 | G2U A14U A16G G19A G35A | 0.01
80 | G2U C3G G7U C42U | 0.08
81 | G2U A12C G27U G33U | 0.02
82 | G2C C10A U20C A39U | 0.04
83 | G2C C8U U20C C45G | 0.09
84 | G2C C31G C42G | 0.02
85 | G2U A4G G5C G19A | 0.13
86 | G2C G5U G30C | 0.06
87 | G2U A6G U34C G40U | 0.04
88 | G2U C3U C10A G27A | 0.05
89 | G2U C3U A4G U9C C15U U28C C31A A41C | 0.01
90 | G2C G5U G22C | 0.01
91 | G2C G27A C31A G33A G36U | 0.03
92 | G2C C23A C42G C45G | 0.07
93 | G2C U9A G19U G22C A25C | 0.16
94 | G2C C8A G22A A26C U28A G33U | 0.05
95 | G2C A14C G27A | 0.04
96 | G2C U32C G36U | 0.02

Row | Variant | self-cleavage
97 | G2U A4G C8A A41G | 0.35
98 | G2C A6C C13A G35C | 0.01
99 | G2U A11C C18U C37A | 0.01
100 | G2C C3G G7C A11U G33C G35A C45G | 0.01
101 | G2C C31U G36U G40A C42U | 0.01
102 | G2C C3U C15G A16U G21U C37A | 0.11
103 | G2U A16C G27A U28G G33C C42U G44A | 0
104 | G2C G7U G35A G40A | 0.16
105 | G2U A14G G33A | 0.01
106 | G2C C18U A25U G36U U38C | 0.03
107 | G2C C3U G21C | 0.18
108 | G2U A12C G19C C31A A41U | 0.01
109 | G2C C10U A26C G36C | 0.01
110 | G2U A14C G30U U34C C37U | 0.01
111 | G2C A12C G30U | 0.02
112 | G2U A39G G40C | 0.02
113 | G2C A12C C13U | 0.04
114 | G2C A11C U20A C42U | 0.02
115 | G2U A4U C8G C31G | 0
116 | G2C C10A C37A | 0.04
117 | G2C A12C A25G G44A | 0.01
118 | G2C C10A C18U G19A G35U | 0.03
119 | G2C C8G C18U C46A | 0.02
120 | G2C C15G A16C U32A U34G | 0.08

Row | Variant | self-cleavage
121 | G2C G22U U43A C45A | 0.06
122 | G2C C3U C18A U20A C31G C37U | 0.03
123 | G2C C10A G35U A41U | 0.01
124 | G2U C3A A14G A24C G33C | 0.13
125 | G2C C3U G7C | 0.53
126 | G2C C13A A25C G30U G36A | 0.19
127 | G2C C8A G17U U20C G22U | 0.14
128 | G2U A4G A24C | 0.06
129 | G2C C8G G33A U38G | 0.09
130 | G2C G21U C23U U34C | 0.08
131 | G2U A24U A25C G33U | 0.02
132 | G2C G5C C8U A11U G27A G33A C37U | 0.02
133 | G2U C3G A4C | 0.12
134 | G2C A26U C31A U32G G44A | 0.02
135 | G2C C15A G33C | 0.01
136 | G2U A16G G30A G35C | 0.01
137 | G2C G22U G33A A39C | 0.03
138 | G2U A14G A16C | 0.01
139 | G2U A14G C15A C31U U34A C37A | 0.04
140 | G2C C10A U32G G33U G36C C37A C45G | 0.02
141 | G2C U9A G17A | 0.06
142 | G2U A4G G19A G29U G36U C46A | 0.02
143 | G2C A14G U20A G27U G36A | 0.01
144 | G2U C3A A24U A26C G27U | 0.59

Row | Variant | self-cleavage
145 | G2U C3G A6U G29U C46U | 0.24
146 | G2C G21A G30U G36A | 0.06
147 | G2C C23A C46G | 1.3
148 | G2U A6C G22U U28G G36A | 0.02
149 | G2U A12U G17C | 0.02
150 | G2C U38A G40C | 0.02
151 | G2C C31A G35C | 0.07
152 | G2C A25U C31A | 0.04
153 | G2C A6G G21C U34C A41G | 0.03
154 | G2U A11C A12C U20C A24U | 0.01
155 | G2U C3A G21U C42G U43C | 0.01
156 | G2C A6C G44C | 0.24
157 | G2U A6C G19A G27U G44U | 0.06
158 | G2U A6C C42G | 0.01
159 | G2U C3G A26U G35C C42G | 0.03
160 | G2C C15A G35U | 0.05
161 | G2C A12C G19U A24G | 0.02
162 | G2C G5C C18U G35A G44A | 0.03
163 | G2U A12G U20A U28C | 0.01
164 | G2U C3A G22U A26U G33A G36A U43G | 0
165 | G2U A4G C23A | 0.06
166 | G2C C13A A16C C37U | 0.01
167 | G2U A26C U32G U34A G35C U43C | 0
